Measured values taken from PMC7819943, “Rice protein-binding microarrays: a tool to detect cis-acting elements near promoter regions in rice”.
The list shows a part of the results.

Target: T1, OsWOX13 (Oryza sativa, UniProt Q5QMM3 1-267)
T1 sequence: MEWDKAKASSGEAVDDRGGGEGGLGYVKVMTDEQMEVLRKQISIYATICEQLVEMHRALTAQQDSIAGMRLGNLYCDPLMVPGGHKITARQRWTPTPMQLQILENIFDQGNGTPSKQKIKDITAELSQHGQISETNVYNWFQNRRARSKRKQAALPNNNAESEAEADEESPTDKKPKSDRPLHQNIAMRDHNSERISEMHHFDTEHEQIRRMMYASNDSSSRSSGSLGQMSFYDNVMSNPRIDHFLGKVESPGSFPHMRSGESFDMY
Assay: protein-binding microarray (RPBM); PBS, 2% BSA, 51.3 ng/ul salmon testes DNA, 50 uM zinc acetate, 200 nM TF, 25 C, 1 h; high values mean tight binding
Details: protein: recombinant; tags: N-terminal polyhistidine and DsRed monomer fusion (pET32a); label: CyDye5-dUTP incorporated in the synthesized complementary strand; 3' TTTTT single-stranded linker to array surface; dsDNA, one strand shown
In short: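 The binding signal is fluorescence intensity per feature, in arbitrary units, read on an Axon 4000B scanner. Polyhistidine- and DsRed-tagged transcription factors (N-terminal fusions) from E. coli BL21-CodonPlus were purified on Ni–NTA and applied at 200 nM for 1 h at 25 °C to a double-stranded, BSA-blocked custom Agilent array in buffer with 50 µM zinc acetate.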

Q: For “GTTTCTAATTAACTAAATTAATTAATTAGCATGATTGGTCCGGAGTCACCTAGTGCAG”, which binding signal is on record?
A: 64700 fluorescence intensity (a.u.)

Q: For “CACTCAATCCCTCCTGGATTGATTCCCCTTGGGGATTAAACGGAGTCACCTAGTGCAG”, which binding signal is on record?
A: 4500 fluorescence intensity (a.u.)

Q: For “AATGCTTAATTTAATTTGTGGCAAGAACCTGTGGTAGTGACGGAGTCACCTAGTGCAG”, which binding signal is on record?
A: 17400 fluorescence intensity (a.u.)

Q: How did the binding signal turn out when “AGATAATTGCATAAACAATCGTTTAGTTAGACTATAGAAACGGAGTCACCTAGTGCAG” was run?
A: 14700 fluorescence intensity (a.u.)

Q: With “AGCATTTCTATGATTTGTTACACTTTTACGAGTCTTATTTCGGAGTCACCTAGTGCAG” as the sequence, how does the binding signal read?
A: 3500 fluorescence intensity (a.u.)

Q: For “AAATGATTGACTGCCTCAAGAGAATTTTACTCCTGTAGTGCGGAGTCACCTAGTGCAG”, which binding signal is on record?
A: 48800 fluorescence intensity (a.u.)

Q: For “TTAATGTTAATGAATCTAGATTTGTGAAACGGAGGGAGTACGGAGTCACCTAGTGCAG”, which binding signal is on record?
A: 14400 fluorescence intensity (a.u.)

Q: “ATATTTAATACTTCTAATTAGTGTCTAAGACCCTGTTTAGCGGAGTCACCTAGTGCAG” was tested. Which binding signal did it give?
A: 4720 fluorescence intensity (a.u.)

Q: Which binding signal does the source give for “GGAGGAGGTGGCGGCGGAGGGGTTGGTGGTGGAGGTGGTCCGGAGTCACCTAGTGCAG” here?
A: 7270 fluorescence intensity (a.u.)

Q: How did the binding signal turn out when “GGTAATTAACCGAGTGTGTGTACTTGTGCAAGATCCAGGCCGGAGTCACCTAGTGCAG” was run?
A: 29700 fluorescence intensity (a.u.)

Q: For “ACTACTGATTTGAATCCTCGTGAGAGATGATGTGATTACACGGAGTCACCTAGTGCAG”, which binding signal is on record?
A: 19800 fluorescence intensity (a.u.)

Q: With “AAATTAAATTGCGAGCTAACAAAGGCCACTTCGTTAGCATCGGAGTCACCTAGTGCAG” as the sequence, how does the binding signal read?
A: 15200 fluorescence intensity (a.u.)

Q: Which binding signal does the source give for “AATTTAAATAATTTAACTTGCTAAGGGATATGACATTTGACGGAGTCACCTAGTGCAG” here?
A: 4480 fluorescence intensity (a.u.)

Q: For “CAAATTACAAATTACAGAAGAACGCCTCGCTACTAGCTAGCGGAGTCACCTAGTGCAG”, which binding signal is on record?
A: 21000 fluorescence intensity (a.u.)

Q: For “CCCATAATTCCATTTGACTGGTTCCTCTCAAGCATGTTGCCGGAGTCACCTAGTGCAG”, which binding signal is on record?
A: 20600 fluorescence intensity (a.u.)

Q: Which binding signal does the source give for “TGTACGAACATTATAATTAACTTATTACATACTCCCTCCGCGGAGTCACCTAGTGCAG” here?
A: 4530 fluorescence intensity (a.u.)

Q: With “TAATTAAATTATAATCCACTAACTACTCATTCCACAACTGCGGAGTCACCTAGTGCAG” as the sequence, how does the binding signal read?
A: 19500 fluorescence intensity (a.u.)

Q: Which binding signal does the source give for “TAAATTGGTAACCTGTGAATGGCCAAACAACGCATACCCACGGAGTCACCTAGTGCAG” here?
A: 12900 fluorescence intensity (a.u.)

Q: For “TATGTTACAATTAATTGATTTACTAGAAGTTTCAATAAAACGGAGTCACCTAGTGCAG”, which binding signal is on record?
A: 26600 fluorescence intensity (a.u.)

Q: For “CATGTTAATGTGATAGAAAAGGACTGAAGCTTGGATCCGACGGAGTCACCTAGTGCAG”, which binding signal is on record?
A: 7900 fluorescence intensity (a.u.)

Q: Which binding signal does the source give for “CGAGACGAATCTTCTGAGCCTAATTAGTCCATGATTAGGCCGGAGTCACCTAGTGCAG” here?
A: 5700 fluorescence intensity (a.u.)

Q: “GTTGATAGTTGTCATATGCACTCCTTGTTAAGCTCGCTATCGGAGTCACCTAGTGCAG” was tested. Which binding signal did it give?
A: 3190 fluorescence intensity (a.u.)

Q: How did the binding signal turn out when “CCGCCGTTAGATTGAAGCAGAGCTACAGGCAGGAGGGGCTCGGAGTCACCTAGTGCAG” was run?
A: 10600 fluorescence intensity (a.u.)
